# Source: PubChem BioAssay (Tox21)
# Values joined by “and” are separate entries in the source; they are usually repeats but may differ in a detail not shown here. Equal values may be shown once. Inconclusive means that the source gave no clear call. Such entries were picked first, then a sample of the others. Where the call is inconclusive, the potency comes from a doubtful curve fit. Some structures have more than one record in an assay (separate samples or runs), and their calls can disagree. Active and inactive are the calls of the source. Unless noted, calls come from the whole dose curve; as a rule, active = well fitted curve in the direction sought with a large enough effect in the repeat runs; inconclusive = weak or mixed curves; inactive = no such curve, though single readings can be large; an effect the other way counts as inactive or inconclusive.
# What was measured:
# [1] = qHTS assay to identify small molecule agonists of the endoplasmic reticulum stress response signaling pathway (AID 1159516; active = well fitted activation curve with a large enough effect in the signal ratio in the repeat runs, not every such curve was filed as active; inconclusive = weak or mixed curves, or effect the other way; the % refers to the signal ratio); details: ESRE-bla HeLa, ER stress beta-lactamase reporter, 5 h; activation: at 61 µM (top of the series) unless noted
# How it was run: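 Beta-lactamase expression from the ER stress response element in HeLa reporter cells is quantified with the LiveBLAzer B/G FRET substrate, read at 405 nm excitation after 2 hr at room temperature, following 5 hr compound treatment at 37 C.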
# [2] = target: Nuclear receptor ROR-gamma (Homo sapiens) (UniProt P51449); assay: qHTS assay to identify small molecule antagonists of the retinoid-related orphan receptor gamma (ROR-gamma) signaling pathway (AID 1159521; note: nearly all actives have a fitted effect of over 50% in size)
# How it was run: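 Decreased RORE-driven luciferase luminescence indicates antagonism. Tet-on RORγ CHO cells received compound, then 1 uM final doxycycline 2 h later; signal read after 16 h incubation.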
# [3] = qHTS assay to identify small molecule agonists of the AP-1 signaling pathway (AID 1159526; calls by dose curve); details: ME-180 (cervical carcinoma) AP-1-bla reporter, beta-lactamase FRET ratio, 5 h; activation: at 76.8 µM (top of the series) unless noted
# [4] = target: Retinoic acid receptor RXR-alpha (Homo sapiens) (UniProt P19793); assay: qHTS assay to identify small molecule agonists of the RXR signaling pathway (AID 1159527; calls by dose curve; note: nearly all actives have a fitted effect of over 35% in size); details: HEK293T RXRa-UAS-bla, beta-lactamase ratio, 16 h; activation: at 76.8 µM (top of the series) unless noted
# UniProt P19793, sequence (P19793 whole entry, looked up): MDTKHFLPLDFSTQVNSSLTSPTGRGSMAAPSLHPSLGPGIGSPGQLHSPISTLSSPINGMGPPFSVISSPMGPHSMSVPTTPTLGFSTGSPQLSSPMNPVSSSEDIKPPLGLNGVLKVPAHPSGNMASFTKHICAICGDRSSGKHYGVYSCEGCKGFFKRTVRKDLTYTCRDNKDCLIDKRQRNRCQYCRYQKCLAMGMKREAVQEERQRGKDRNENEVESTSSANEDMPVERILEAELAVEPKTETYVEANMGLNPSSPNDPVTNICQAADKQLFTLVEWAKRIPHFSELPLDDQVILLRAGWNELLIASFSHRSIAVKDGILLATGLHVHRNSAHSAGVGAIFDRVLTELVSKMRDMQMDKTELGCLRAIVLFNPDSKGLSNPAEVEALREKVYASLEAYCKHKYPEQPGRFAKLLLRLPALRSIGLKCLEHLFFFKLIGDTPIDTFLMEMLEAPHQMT
# How it was run: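 16 hr incubation of compound-treated RXR-alpha-UAS-bla HEK 293T cells (2% charcoal-stripped FBS, 37 C) preceded a 2 hr room-temperature LiveBLAzer FRET substrate step and blue/green fluorescence measurement.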
# [5] = qHTS assay to identify small molecule antagonists of the vitamin D receptor (VDR) signaling pathway - cell viability counter screen (AID 743225); details: VDR-bla HEK293T viability, CellTiter-Glo luminescence, 16 h; viability change, negative = cytotoxic: at 61 µM (top of the series) unless noted; note: nearly all actives have a fitted effect of over 50% in size
# How it was run: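 Parallel cytotoxicity test: VDR-UAS-bla HEK 293T, 3 nM (final) 1-alpha,25-dihydroxyvitamin D3 with test compound, 16 h, 37C. Endpoint is CellTiter-Glo luminescence in the same wells.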
# [6] = qHTS assay to identify small molecule agonists of the endoplasmic reticulum stress response signaling pathway - cell viability counter screen (AID 1159517; calls by dose curve; note: nearly all actives have a fitted effect of over 50% in size)
# How it was run: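 After overnight attachment, ESRE-bla HeLa cells were treated with Tox21 library compounds for 5 hr. CellTiter-Glo luminescence, read 30 min post-addition at room temperature, reported viability.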
# [7] = qHTS assay to identify small molecule antagonists of the retinoid-related orphan receptor gamma (ROR-gamma) signaling pathway - cell viability counter screen (AID 1159520); note: nearly all actives have a fitted effect of over 50% in size
# How it was run: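 Cytotoxicity was read from cellular ATP (CellTiter-Glo luminescence) after 16 hr at 37 C with 1 uM doxycycline induction. The inducer was added 2 hr after compound transfer to Tet-on ROR gamma CHO cells.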
# [8] = qHTS assay to identify small molecule agonists of the RXR signaling pathway - cell viability counter screen (AID 1159529); note: nearly all actives have a fitted effect of over 50% in size
# How it was run: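 In this parallel viability measure, GeneBLAzer RXR-alpha HEK 293T cells (2% charcoal-stripped FBS) were given a 5 hr preincubation, treated with compounds 16 hr at 37 C, and read by CellTiter-Glo luminescence.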
# % is set by controls: 0 for no effect and ±100 for the full control effect; potency is the fitted concentration of half-maximal effect; tags give direction and shape of the fitted curve or compound fluorescence and quenching.
compound,measurement,setting,value
CCCCCCCC(=O)OC,Potency,[1],inactive
same,Potency,[2],inactive
same,Potency,[3],inactive
same,activation,[4],inconclusive: 10.5%
Nc1ccccc1N,Potency,[5],"inconclusive: 0.0055 µM [cytotoxic, full curve, poor fit]"
same,Potency,[1],"inconclusive: 56.2 µM and inconclusive: 13.8 µM [inhibitor, partial curve, poor fit]"
same,Potency,[6],"inconclusive: 19.5 µM [rising, partial curve]"
O=[Se](O)O,Potency,[5],"inconclusive: 3.47 µM [cytotoxic, full curve, poor fit]"
same,Potency,[1],inactive
same,Potency,[2],"inconclusive: 43.3 µM [inhibitor, partial curve, poor fit]"
same,Potency,[3],active: 5.28 µM
same,Potency,[4],inconclusive: 55 µM and inconclusive: 1.18 µM [inhibitor]
Cc1cc(=O)oc2cc(O)ccc12,Potency,[1],"inconclusive: 61.6 µM [fluorescent, partial curve, poor fit] and active: 49 µM and active: 19 µM"
same,Potency,[3],"inconclusive: 30.9 µM [activator, partial curve, poor fit]"
same,activation,[3],inconclusive: 11.2% [at 35.3 µM]
same,Potency,[4],active: 43.6 µM
OCCN1CCNCC1,Potency,[5],"inconclusive: 1.22 µM [cytotoxic, single point] and inactive"
same,Potency,[1],"inconclusive: 48.5 µM [rising, partial curve]"
same,Potency,[6],"inconclusive: 0.886 µM [cytotoxic, full curve, poor fit]"
Cc1ccc(O)c(-n2nc3ccccc3n2)c1,Potency,[1],"inconclusive: 10.7 µM [rising, single point]"
same,Potency,[7],inactive
same,Potency,[8],"inconclusive: 34.7 µM [cytotoxic, partial curve, poor fit]"
CCn1cc(C(=O)O)c(=O)c2cc(F)c(N3CCNC(C)C3)c(F)c21 (stereo unspecified),Potency,[1],inactive
same,Potency,[3],inactive
same,Potency,[4],inactive
same,Potency,[8],inactive
Clc1sc(Cl)c(Cl)c1Cl,Potency,[5],inactive
same,Potency,[1],inactive
same,Potency,[6],"inconclusive: 9.77 µM [cytotoxic, full curve, poor fit]"
CN1CCc2cccc3c2[C@H]1Cc1ccc(O)c(O)c1-3,Potency,[5],"active: 49.5 µM and active: 11.5 µM and inconclusive: 26.8 µM [cytotoxic, single point]"
same,Potency,[1],inconclusive: 62.3 µM
same,Potency,[2],active: 27.6 µM and active: 20.4 µM
same,Potency,[4],"inconclusive: 49.5 µM [cytotoxic] and inconclusive: 16.3 µM [cytotoxic, partial curve, poor fit] and inactive"
same,Potency,[8],"inconclusive: 49.5 µM [cytotoxic, partial curve, poor fit] and inconclusive: 21.3 µM [cytotoxic, partial curve, poor fit]"
CC#C[C@]1(O)CC[C@H]2[C@@H]3CCC4=CC(=O)CCC4=C3[C@@H](c3ccc(N(C)C)cc3)C[C@@]21C,Potency,[5],"inconclusive: 24.5 µM [cytotoxic, full curve]"
same,Potency,[1],"inconclusive: 26.8 µM [rising, single point]"
same,Potency,[7],"inconclusive: 43.3 µM [cytotoxic, partial curve, poor fit]"
same,Potency,[2],active: 30.6 µM and active: 26.6 µM
same,Potency,[4],"inconclusive: 24.5 µM [rising, partial curve] and inconclusive: 15.1 µM [rising, partial curve]"
CC(=O)[C@H]1CC[C@H]2[C@@H]3CC=C4C[C@@H](O)CC[C@]4(C)[C@H]3CC[C@]12C,Potency,[1],inactive
same,Potency,[2],"inconclusive: 8.41 µM [inhibitor, full curve]"
same,Potency,[8],"inconclusive: 6.91 µM [cytotoxic, full curve] and inconclusive: 9.52 µM [cytotoxic, partial curve, poor fit]"
COCCOc1cc2cc(C(=O)NC3CCN(C(C)C)CC3)n(CC(=O)Nc3ccc(Cl)cn3)c2cn1,Potency,[5],inactive
same,activation,[1],inconclusive: 6.05%
same,Potency,[6],inactive
CN(C)c1ccc(C2(c3ccc(N(C)C)cc3)OC(=O)c3cc(N(C)C)ccc32)cc1,Potency,[1],"inconclusive: 7.74 µM [falling, full curve]"
same,Potency,[3],"inconclusive: 30.8 µM [falling, partial curve]"
same,activation,[4],inconclusive: 52.7%
CC(C)CC(C)O (stereo unspecified),Potency,[1],inactive
same,Potency,[3],inactive
same,Potency,[4],"inactive and inconclusive: 61.6 µM [inhibitor, single point]"
Nc1ccc2cc3ccccc3cc2c1,Potency,[1],"inconclusive: 22.3 µM [fluorescent, partial curve] and inconclusive: 24.5 µM [fluorescent, partial curve]"
same,Potency,[2],inactive
same,activation,[3],inconclusive: 1.71%
same,Potency,[4],"inconclusive: 25 µM [fluorescent, partial curve] and inconclusive: 54.9 µM [fluorescent, partial curve]"
same,Potency,[8],"inconclusive: 17.7 µM [cytotoxic, full curve] and inconclusive: 19.5 µM [cytotoxic, partial curve]"
